Laboratory results: PMC7819943, “Rice protein-binding microarrays: a tool to detect cis-acting elements near promoter regions in rice”
The list shows a part of the results.

molecular target: T1, OsWOX13 (Oryza sativa, UniProt Q5QMM3 1-267); assay: protein-binding microarray (RPBM); PBS, 2% BSA, 51.3 ng/ul salmon testes DNA, 50 uM zinc acetate, 200 nM TF, 25 C, 1 h; high values mean tight binding; conditions: protein: recombinant; tags: N-terminal polyhistidine and DsRed monomer fusion (pET32a); label: CyDye5-dUTP incorporated in the synthesized complementary strand; 3' TTTTT single-stranded linker to array surface; dsDNA, one strand shown
T1 sequence: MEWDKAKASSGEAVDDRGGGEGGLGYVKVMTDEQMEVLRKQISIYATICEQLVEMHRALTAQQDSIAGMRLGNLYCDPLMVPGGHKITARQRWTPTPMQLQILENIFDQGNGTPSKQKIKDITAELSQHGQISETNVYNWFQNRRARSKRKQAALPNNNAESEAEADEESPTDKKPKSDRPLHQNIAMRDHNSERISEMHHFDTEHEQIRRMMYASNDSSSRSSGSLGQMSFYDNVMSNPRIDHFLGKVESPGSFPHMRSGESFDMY
Outline: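 A custom Agilent array was converted to double-stranded form by primer extension with Cy5-dUTP and blocked with 2% BSA. Protein at 200 nM in PBS with 2% BSA, salmon testes DNA and 50 µM zinc acetate was applied for 1 h at 25 °C, followed by washing. The proteins were polyhistidine–DsRed N-terminal fusions of transcription factors, expressed in E. coli BL21-CodonPlus and Ni–NTA-purified. The binding signal is per-feature fluorescence intensity (arbitrary units) from an Axon 4000B scanner.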

Sequence | binding signal
GGCGAACAAATTAAAATGCCTTTCGATTTCCCGTCTGGTTCGGAGTCACCTAGTGCAG | 3440 fluorescence intensity (a.u.)
ATATAAAATTAACGTGGATAATCACATTTTCCTACACATTCGGAGTCACCTAGTGCAG | 12100 fluorescence intensity (a.u.)
AGCAACAAAATTAACAACGGGTAACTCGTAAGTACGATCGCGGAGTCACCTAGTGCAG | 5400 fluorescence intensity (a.u.)
TTCATGGTAATCAGATTAATTTGGGCGTTAGATTTAAGAACGGAGTCACCTAGTGCAG | 6120 fluorescence intensity (a.u.)
AGCTTTAAATTTAAAGTTGAAAATTTAAATTTTAGCTAATCGGAGTCACCTAGTGCAG | 8170 fluorescence intensity (a.u.)
CCAAAATTAAAATCTTGGAACATAATCTTTAGAGTTGATTCGGAGTCACCTAGTGCAG | 4130 fluorescence intensity (a.u.)
TAGCTAATACTTAATTAATCATACACAAATGAGTTGTTCCCGGAGTCACCTAGTGCAG | 8720 fluorescence intensity (a.u.)
TTACGTCCTAATTAAGTGTCAACAAATGCTGCATTATTTACGGAGTCACCTAGTGCAG | 4500 fluorescence intensity (a.u.)
GATGAATGGACGGACAGGATTGGTTTGAGTTGTCGTGTTTCGGAGTCACCTAGTGCAG | 7430 fluorescence intensity (a.u.)
GTGTGCATGATTTTGTCGTTTGTTTTATGCATGCTGCGTTCGGAGTCACCTAGTGCAG | 4770 fluorescence intensity (a.u.)
ACAAAACAGTGATTTTGTAGTAGCGATTTCATGTTTGTTCCGGAGTCACCTAGTGCAG | 3280 fluorescence intensity (a.u.)
TCTAATTATCAATCACCTATCAAGACAAATCGGACGCTACCGGAGTCACCTAGTGCAG | 43900 fluorescence intensity (a.u.)
GACCTGATTAAGAGCTAGCAGCCAATCTCTTCCCCTTCTCCGGAGTCACCTAGTGCAG | 5450 fluorescence intensity (a.u.)
TTAAATGAATGATAAGTATAATTACTTATCCTTAGTCTATCGGAGTCACCTAGTGCAG | 18100 fluorescence intensity (a.u.)
CCATACATAAATAATCAATCTATTTCTATTTGTGTAACTTCGGAGTCACCTAGTGCAG | 11100 fluorescence intensity (a.u.)
TTCTCTAGCCCTAAATATGCCGAAGAATATTCCATGTCTCCGGAGTCACCTAGTGCAG | 64900 fluorescence intensity (a.u.)
AGTTGATTGAGAAAGGCAATGCCACCAGAAGTACCGGTACCGGAGTCACCTAGTGCAG | 21700 fluorescence intensity (a.u.)
TGACATGTAAATTAACATAGAGATATTTCTTAATTTGACACGGAGTCACCTAGTGCAG | 10300 fluorescence intensity (a.u.)
ATTAATCTATCATTAGCACATATTTACTGTAGCACCACATCGGAGTCACCTAGTGCAG | 7510 fluorescence intensity (a.u.)
ATGATATTTGTATAATTATTTTGAATAAGACGGATAGTCACGGAGTCACCTAGTGCAG | 4760 fluorescence intensity (a.u.)
TGGCTCTGATCCATCAATTAGGATTTGCCAGTGCCTCTCCCGGAGTCACCTAGTGCAG | 5390 fluorescence intensity (a.u.)

Sequence | binding signal
CTGGAACAAATTGGTTAGATCACCACGAAATACAACACAACGGAGTCACCTAGTGCAG | 11700 fluorescence intensity (a.u.)
GGTAAATTTTATGTAAATTAACCCGGGTATTATGGTTCTTCGGAGTCACCTAGTGCAG | 23200 fluorescence intensity (a.u.)
TCTAAATTTTATGTCCATTTACACGCTACAGTTTAATTTACGGAGTCACCTAGTGCAG | 5210 fluorescence intensity (a.u.)
GATTGTGATTGGTTGGAAAGAGAATATTGGTCGATAAGTTCGGAGTCACCTAGTGCAG | 30700 fluorescence intensity (a.u.)
GGGATTAGGATTGAGAAATGAATGAATGGTTAGGATTAAACGGAGTCACCTAGTGCAG | 8690 fluorescence intensity (a.u.)
TTGGGTTGGGTTGGGTGGTCCATTCTGTACGGTGCGCCGGCGGAGTCACCTAGTGCAG | 3920 fluorescence intensity (a.u.)
GCGCAGATTGGGGCGGTACCGCTGGGGTAAAACCGTATTTCGGAGTCACCTAGTGCAG | 3730 fluorescence intensity (a.u.)
GCTGTCAATCTGCTCTGTTCGTTAGGTTTGTACGATCCTTCGGAGTCACCTAGTGCAG | 3370 fluorescence intensity (a.u.)
CCTCGCAAATTAAAGGAGTCAATCTCTTGAAGGTATCTTCCGGAGTCACCTAGTGCAG | 7710 fluorescence intensity (a.u.)
CCTTATTAGTTCAATTATGCATGGAAAATCATGGCTGCACCGGAGTCACCTAGTGCAG | 7340 fluorescence intensity (a.u.)
TTGGGAAACGGAGGAAGTAATTAATTAGTCTTTGTGGAAACGGAGTCACCTAGTGCAG | 3790 fluorescence intensity (a.u.)
TCCTGAATTGGGCCTTAAATTAGGAATTCAATTGGAGGCCCGGAGTCACCTAGTGCAG | 10000 fluorescence intensity (a.u.)
ACTTGATGGAGAGGATGATTGTATTGGGTGGTCTAAGATTCGGAGTCACCTAGTGCAG | 31500 fluorescence intensity (a.u.)
GGTTAAATTGCCATGTAAGCGCCATGTCAGTGCGTGAGACCGGAGTCACCTAGTGCAG | 15200 fluorescence intensity (a.u.)
TTGTAAATTGTTACCCATCTATCATCCAATCAAATTTCAGCGGAGTCACCTAGTGCAG | 20400 fluorescence intensity (a.u.)
AATAATTTCTTTGTAACATAAAACCTCAGGATTATAAGTTCGGAGTCACCTAGTGCAG | 19900 fluorescence intensity (a.u.)
GCTTACAAGTCACTGTTAAATTTTAAAATTTAAAGCTTATCGGAGTCACCTAGTGCAG | 4350 fluorescence intensity (a.u.)
TTATCAATTTAACTATCTAATGGTTACTTCAGTCTGACGCCGGAGTCACCTAGTGCAG | 30700 fluorescence intensity (a.u.)
ACCAAATAGGCTAATTAGCAGTCCTAATGACATATTATAGCGGAGTCACCTAGTGCAG | 32600 fluorescence intensity (a.u.)
CAACTTGCAAATTGCAGAAGTTTCTTGTCATGATTGAAATCGGAGTCACCTAGTGCAG | 4520 fluorescence intensity (a.u.)
ACTAGATTGGCACTAGATTAGCAAATGTAATCTAATCTAGCGGAGTCACCTAGTGCAG | 46600 fluorescence intensity (a.u.)
